Hit rate of the full screen: of about 310,000 compounds, about 2,200 (0.71%) showed an effect of 50% or more. Effects have a minus sign here. The list shows a part of the results.
These compounds were tested against human ether-à-go-go-related gene (hERG) potassium channel (human, UniProt Q12809) (assay: primary screen, population patch clamp on CHO cells stably expressing hERG).
Chain of human ether-à-go-go-related gene (hERG) potassium channel (Q12809 whole entry, looked up): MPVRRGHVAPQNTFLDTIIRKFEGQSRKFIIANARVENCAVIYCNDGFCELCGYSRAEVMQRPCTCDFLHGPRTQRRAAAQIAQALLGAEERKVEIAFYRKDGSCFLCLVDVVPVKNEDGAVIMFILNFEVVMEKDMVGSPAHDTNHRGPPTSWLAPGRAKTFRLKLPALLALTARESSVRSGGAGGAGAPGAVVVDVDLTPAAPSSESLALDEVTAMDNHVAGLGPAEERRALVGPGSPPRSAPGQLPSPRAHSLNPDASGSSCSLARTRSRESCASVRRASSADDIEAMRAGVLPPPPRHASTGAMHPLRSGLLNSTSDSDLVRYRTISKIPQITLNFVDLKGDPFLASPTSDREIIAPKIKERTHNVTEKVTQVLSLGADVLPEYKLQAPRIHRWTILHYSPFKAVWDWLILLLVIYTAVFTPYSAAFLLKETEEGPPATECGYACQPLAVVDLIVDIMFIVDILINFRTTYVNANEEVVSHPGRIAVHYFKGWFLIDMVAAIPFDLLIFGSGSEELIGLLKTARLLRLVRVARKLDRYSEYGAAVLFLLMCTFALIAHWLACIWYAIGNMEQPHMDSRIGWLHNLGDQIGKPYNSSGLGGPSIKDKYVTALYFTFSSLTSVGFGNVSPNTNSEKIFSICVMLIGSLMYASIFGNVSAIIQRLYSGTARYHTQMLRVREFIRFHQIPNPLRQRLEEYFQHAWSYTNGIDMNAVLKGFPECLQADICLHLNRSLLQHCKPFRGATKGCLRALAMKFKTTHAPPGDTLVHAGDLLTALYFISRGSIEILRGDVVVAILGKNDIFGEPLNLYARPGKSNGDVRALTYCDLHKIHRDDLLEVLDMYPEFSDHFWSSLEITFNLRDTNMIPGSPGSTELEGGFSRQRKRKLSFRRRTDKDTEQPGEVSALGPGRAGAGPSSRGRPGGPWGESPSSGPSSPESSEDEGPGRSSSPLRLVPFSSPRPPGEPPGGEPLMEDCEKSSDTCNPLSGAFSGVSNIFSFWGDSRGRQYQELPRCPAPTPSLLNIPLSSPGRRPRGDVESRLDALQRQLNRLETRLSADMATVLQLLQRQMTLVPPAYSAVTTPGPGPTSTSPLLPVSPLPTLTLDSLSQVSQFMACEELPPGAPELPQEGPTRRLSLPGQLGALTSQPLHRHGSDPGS

Row | SMILES | hERG current change (%, negative = inhibition) at 1uM [%]
1 | COc1ccc(CNC(=O)CCCn2nc(C)c([N+](=O)[O-])c2C)cc1 | 2.05
2 | CCOC(=O)c1c(C)n(C)c2ccc(OCC(O)CN3CCCCCC3)cc12.Cl (stereo not shown) | 1.74
3 | O=c1[nH]c2ccccc2nc1C(F)(F)F | 10.6
4 | FC(F)(F)Oc1ccc(Nc2nc3ccccc3o2)cc1 | 11.5
5 | COc1ccc(/C=C2\CCn3c2nc2cc(C(=O)O)ccc2c3=O)cc1 | 9.29
6 | CCc1noc(C)c1C(=O)N1CCCC1 | 9.92
7 | COCc1cc(C)nc2sc(C(=O)NN)c(-n3cccc3)c12 | 6.7
8 | COc1ccc(C(=O)C2CCCN(S(=O)(=O)c3ccccc3F)C2)c(C)c1 (stereo not shown) | 10.1
9 | Cc1ccc(Oc2ccc(Cl)cc2N)cc1 | 13.6
10 | COc1ccccc1CNCC(=O)Nc1ccc(C#N)cc1.O=C(O)C(=O)O | 8.33
11 | Brc1ccc(/C=C/C=N/Nc2nc3ccccc3s2)cc1 | 3.23
12 | CC(C)C1Oc2ccccc2N(CC(=O)N(Cc2ccncc2)Cc2ccco2)C1=O (stereo not shown) | -19.4
13 | Cn1nnnc1SCC(=O)NCc1ccccc1 | 4.51
14 | COCCN(Cc1cc2cc(C)ccc2n2nnnc12)C(=S)Nc1ccccc1C | 17
15 | O=S(=O)(NC1CCCCCC1)c1cccc2cccnc12 | 6.75
16 | COc1ccc(N2C(=O)/C(=C/c3ccc([N+](=O)[O-])cc3)N=C2C)cc1 | 10.9
17 | CCCOc1ccc(C(=O)CCCC(=O)c2ccc(OCCC)cc2)cc1 | 18.8
18 | COc1ccc(Cc2nc3ccc(C(=O)NCC(C)(C)OC)cc3o2)cc1 | 16.4
19 | Cc1ccc(C(=O)N2CCC(C(=O)Nc3cccc([N+](=O)[O-])c3)CC2)cc1 | -42.1
20 | CCC[n+]1c2ccccc2cc2ccccc21.[I-] | 14
21 | Cc1cccc(COc2ncnc3nc[nH]c23)c1 | 8.09
22 | O=C(O)COc1ccccc1/C=N/Nc1ccc(S(=O)(=O)N2CCOCC2)cc1[N+](=O)[O-] | 14.5
23 | CC(=O)c1cccc(OCc2cc(C(=O)N(C)CCc3ccccn3)no2)c1 | 0.0123
24 | CCCCOC(=O)CSC1=C(C#N)C(c2cccnc2)C(C(=O)OCC)=C(c2ccccc2)N1 (stereo not shown) | -11.5
25 | O=C(CNC(=O)c1ccc(F)cc1)N/N=C/c1cccnc1 | 7.62

Reference: PMC4336329 (PLoS ONE, 2015)
